Reference: PubChem BioAssay AID652104 (National Center for Advancing Translational Sciences (NCATS), 2013)
In all, about 410,000 compounds went through this assay and about 7,200 (1.8%) were called active. Inconclusive results, whose numbers are uncertain, are shown with a selection of clear calls. Calls come from the whole dose curve; as a rule, active = well fitted activation curve with a large enough effect; inconclusive = small, poorly fitted or top-dose-only effect, or another doubt; inactive = no such curve, though single readings can be large or run the other way. Potencies of inconclusive entries are doubtful fits and often do not repeat.

Experiment: qHTS of TDP-43 Inhibitors; note: nearly all actives have a fitted effect of over 50% in size; for growth rescue (activation): % of control where 0% means no effect
Settings: TDP-43 expressing yeast growth rescue, BacTiter-Glo, 24 h; growth rescue (activation): at 46.1 µM (top of the series) unless noted
Summary of the method: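 Cell-based yeast growth screen: TDP-43 expression induced in galactose, inoculum OD600=0.02 after raffinose pregrowth to mid-log. Read-out BacTiter-Glo luminescence at 24 hr, 30 deg C; inhibition of toxicity seen as signal increase.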
Potency is the fitted concentration of half-maximal effect; tags give direction and shape of the fitted curve.

Growth rescue (activation), inactive:
COc1ccccc1N(CC(=O)N/N=C(\C)c1ccc(F)cc1)S(=O)(=O)c1ccccc1 5.99%, CCOC(=O)c1scc(-c2ccccc2)c1S(=O)(=O)Nc1ccccc1OC 0%, Cc1ccc(C)c(NC(=O)CSc2nc3nccnc3c(=O)n2CCc2c[nH]c3ccccc23)c1 0%, CN(CC(=O)Nc1ccc(OC(F)(F)F)cc1)S(=O)(=O)c1ccc2c(c1)CCC(=O)N2 5.67%, Cc1ccccc1NC(=S)NCC(c1cccnc1)N1CCOCC1 (stereo not given) 4.87%, CCN(C(=O)CSc1nc2ccccc2c2nc(CCn3c(C)nc4ccccc43)nn12)c1cccc(C)c1 -5.99%, COc1cc2c(cc1NC(=O)C(C)OC(=O)/C=C/c1ccc(OC(F)F)cc1)oc1ccccc12 (stereo not given) 7.87%, COc1ccc(-c2nc(-n3c(C)c(C(C)=O)c(C(C)=O)c3C)sc2C)cc1OC -13.1%, COc1ccc(C(=O)c2c(N)c(C(=O)Nc3ccccc3Cl)c3ccccn23)cc1 -6.41%, COc1ccc(NC(=O)CCS(=O)(=O)c2cc3c4c(c2)CCN4C(=O)CC3)c(OC)c1 3.09%, COc1ccc(NS(=O)(=O)c2cnc(N)nc2)cc1Cl -2.81%, Cc1ccc2c(c1)c(N=O)c(O)n2Cc1ccc(Cl)cc1 -1.13%, Cc1cccc(C2=NN(c3ccc(Br)cc3)[C@@H](C(=O)N3CCOC3=O)[C@@H]2C)c1 11.4%, CCC(CC)C(=O)N1CCN(Cc2nc3ccccc3c(=O)[nH]2)CC1 -18.3%

Growth rescue (activation), inconclusive:
Cn1c(=O)oc2cc(S(=O)(=O)NC(CC(=O)O)c3cccc(Br)c3)ccc21 (stereo not given) 9.44% [activator]

Potency, inconclusive:
O=C(COC(=O)c1ccc2ncsc2c1)Nc1ccccc1Cl 22.4 µM [activator, partial curve], COc1cccc2oc3cc(C#Cc4ccccn4)ccc3c(=O)c12 28.2 µM [activator, single point], COc1cc(-c2nnc(SCc3ccccc3Cl)o2)cc(OC)c1OC 35.5 µM [activator, partial curve, poor fit], C=CCOC(=O)C1=C[C@H](c2csc3ccccc23)[C@@H](CCCO)[C@H](OCC)O1 11.2 µM [activator, partial curve], CCc1cccc(NC(=O)c2cnc(N3CCOCC3)c3ccccc23)c1 14.1 µM [activator, partial curve], O=S(=O)(Nc1ccc2c(c1)OCCO2)c1ccc2oc3ccccc3c2c1 22.4 µM [activator, single point], O=C(O)C1c2ccccc2Cc2ccccc21 15.8 µM [activator, single point], COc1ccc(C2CC(O)(c3ccccc3)Oc3cc(OC)cc(OC)c32)cc1 (stereo not given) 35.5 µM [activator, partial curve], O=C(COC(=O)CCSc1ccccc1)Nc1ccccc1Br 7.08 µM [activator, partial curve], Cc1ccc(S(=O)(=O)N2[C@@H](c3ccccc3)C(C(=O)O)=CC[C@H]2c2cccs2)cc1 35.5 µM [activator, single point], O=C(c1ccco1)N1N=C(c2ccccc2)CC1c1ccc2nccnc2c1 (stereo not given) 22.4 µM [activator, partial curve, poor fit], CCN(CC)C1CCN(C(=O)c2cc(COc3ccccc3SC)on2)C1 (stereo not given) 1.41 µM [activator, partial curve], Cc1nn(-c2ccccc2)c(C)c1C(=O)OCC(=O)Nc1ccc2c(c1)OCO2 14.1 µM [activator, single point], [N-]=[N+]=CC(=O)C(c1ccccc1)(c1ccccc1)c1ccccc1 39.8 µM [activator, single point], c1ccc(Oc2nc(-c3cccnc3)nc3ccccc23)cc1 12.6 µM [activator, single point], O=C(NCCC(=O)N(Cc1ccco1)Cc1cccs1)c1ccc(Br)cc1 35.5 µM [activator, partial curve], CN(C)c1ccc(/C=C/C(=O)c2ccc3c(c2)OCCO3)cc1[N+](=O)[O-] 1.41 µM [activator, partial curve], O=C(N[C@@H](c1ccccc1)[C@H](O)c1ccccc1)[C@@H]1CCCN1C(=O)OCc1ccccc1 7.08 µM [activator, partial curve, poor fit], O=C(Nc1ccc(F)cc1F)c1ccc(-n2cccn2)nc1 8.91 µM [activator, full curve], COc1ccc(NC(=O)CSc2nc3ccccc3nc2N2CCOCC2)c(OC)c1 15.8 µM [activator, partial curve], Cc1ccc2oc(C(=O)N(C)Cc3ccc(C)o3)c(C)c2c1 31.6 µM [activator, single point], Cc1ccc(S(=O)(=O)Nc2ccc(Cl)cn2)cc1 12.6 µM [activator, partial curve], CSc1ccccc1C(=O)N(C)Cc1ccccc1 35.5 µM [activator, single point], CN1CCN(Cc2nc3c(c(=O)[nH]c(=O)n3C)n2Cc2c(F)cccc2Cl)CC1 6.31 µM [activator, partial curve], Cc1nc(N2CCN(C(=O)c3ccco3)CC2)c(C#N)c2c1CCCC2 7.08 µM [activator, partial curve]

Potency, active:
Cc1c(C(=O)N2CCCC2)oc2c1-c1nn(CC(=O)NCc3ccc(OC(C)C)cc3)cc1CC2 20 µM, O=[N+]([O-])c1ccc(CNc2ccc(F)cc2)s1 12.6 µM, CN(C)S(=O)(=O)Oc1ccsc1C(=O)Nc1ccc(Cl)cc1 14.1 µM, COc1ccccc1CNS(=O)(=O)c1ccc(Cl)s1 12.6 µM, Cc1oc(-c2ccccc2)nc1C(=O)N1CCN(c2ccc(F)cc2)CC1 11.2 µM
